Test results published in the supplement of paper PMC8285479.
Where a name gives a salt, the structure may show the parent alone. ± gives the standard deviation of the averaged measurements. The full ranking holds about 1,900 compounds; the median of “normalised cell viability (NPI; 0 = phenylarsine oxide control, 1 = DMSO control)” is about 1, and the lowest 2% start at about 0.039. The list shows a part of the results.

Test system: NCI-H1944
Test: normalised cell viability (NPI; 0 = phenylarsine oxide control, 1 = DMSO control) (fraction of DMSO control); NCI-H1944 is a non-small cell lung cancer line; higher = more viable cells (less compound toxicity)
Settings: 6 days
[1] = glucocorticoid arm: hydrocortisone 2.75 uM co-treatment, compound 1 µM
[2] = glucocorticoid arm: hydrocortisone 2.75 uM co-treatment, compound 5 µM
[3] = glucocorticoid arm: hydrocortisone 2.75 uM pre-treated 2 days and continued, compound 1 µM
[4] = glucocorticoid arm: hydrocortisone 2.75 uM pre-treated 2 days and continued, compound 5 µM
[5] = glucocorticoid arm: vehicle, compound 1 µM
[6] = glucocorticoid arm: vehicle, compound 5 µM
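Also: CTB read-out in 384-well plates, mean of triplicate wells, normalised per plate against 1 µM phenylarsine oxide and 0.1% DMSO, compounds added 24 h after seeding.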

| Structure (SMILES) | normalised cell viability [1] | normalised cell viability [2] | normalised cell viability [3] | normalised cell viability [4] | normalised cell viability [5] | normalised cell viability [6] |
| --- | --- | --- | --- | --- | --- | --- |
| CC(=O)SCC(Cc1ccccc1)C(=O)NCC(=O)OCc1ccccc1 (stereo unspecified) [Racecadotril] | 1.02 ± 0.011 | 1.02 ± 0.026 | 1.01 ± 0.01 | 1.027 ± 0.0058 | 1.001 ± 0.0086 | 1 |
| CC1COc2c(N3CCN(C)CC3)c(F)cc3c(=O)c(C(=O)O)cn1c23 (stereo unspecified) [Ofloxacin] | 0.9917 ± 0.005 | 0.965 ± 0.024 | 0.9977 ± 0.0025 | 1.02 ± 0.079 | 0.9773 ± 0.0061 | 0.985 ± 0.01 |
| CCOC(=O)Nc1ccc(NCc2ccc(F)cc2)nc1N [Flupirtine maleate] | 0.9973 ± 0.0031 | 1.01 ± 0.01 | 1 ± 0.013 | 1.02 ± 0.015 | 1.01 ± 0.011 | 1.01 |
| NC(CO)C(=O)NNCc1ccc(O)c(O)c1O (stereo unspecified) [Benserazide hydrochloride] | 1 ± 0.018 | 1 ± 0.017 | 1.013 ± 0.0058 | 1.01 ± 0.021 | 1.006 ± 0.0069 | 1.007 ± 0.0058 |
| NC(CO)C(=O)NNCc1ccc(O)c(O)c1O (stereo unspecified) [Benserazide HCl] | 1.005 ± 0.0087 | 1.01 ± 0.015 | 1.03 ± 0.015 | 1.03 ± 0.021 | 0.999 ± 0.011 | 0.9953 ± 0.0057 |
| Cc1cccc(C(=O)NCN2CCN(c3ccccc3C#N)CC2)c1 [PD 168,077 maleate] | 0.9943 ± 0.0081 | 0.957 ± 0.013 | 1.01 ± 0.03 | 0.968 ± 0.0087 | 0.9923 ± 0.0061 | 0.99 ± 0.0076 |
| CN(C)CCCN1c2ccccc2CCc2ccccc21 [Imipramine hydrochloride] | 1 ± 0.017 | 0.979 ± 0.015 | 1.013 ± 0.0058 | 1.06 ± 0.091 | 0.9927 ± 0.004 | 1.001 ± 0.0081 |
| CN1CCN(c2ccc(OC(F)(F)F)c(Nc3ncc4c(n3)-c3c(c(C(N)=O)nn3CCO)CC4)c2)CC1 | 0.183 ± 0.025 | 0.146 ± 0.02 | 0.428 ± 0.025 | 0.556 ± 0.069 | 0.0347 ± 0.0042 | 0.0361 ± 0.0086 |
| Fc1ccc([C@@H]2CCNC[C@H]2COc2ccc3c(c2)OCO3)cc1 [Paroxetine hydrochloride hemihydrate (MW = 374.83)] | 0.9837 ± 0.0085 | 0.965 ± 0.018 | 0.991 ± 0.0082 | 0.992 ± 0.0085 | 0.985 ± 0.011 | 0.9777 ± 0.0023 |
| Fc1ccc([C@@H]2CCNC[C@H]2COc2ccc3c(c2)OCO3)cc1 [Paroxetine HCl] | 1.01 ± 0.016 | 0.963 ± 0.021 | 1.023 ± 0.0058 | 0.978 ± 0.0044 | 1.007 ± 0.0058 | 1.007 ± 0.0058 |
| Cn1cc(-c2ccc3nnc(Sc4ccc5ncccc5c4)n3n2)cn1 | 1.02 ± 0.015 | 1.04 | 1.02 ± 0.022 | 1.02 ± 0.033 | 1.02 ± 0.015 | 1.027 ± 0.0058 |
| Clc1ccc(Nc2nnc(Cc3ccncc3)c3ccccc23)cc1 [Vatalanib dihydrochloride (PTK787)] | 0.987 ± 0.011 | 0.959 ± 0.028 | 0.9987 ± 0.0023 | 0.958 ± 0.029 | 1.006 ± 0.0063 | 0.9923 ± 0.0023 |
| O=C1NC(=O)/C(=C/c2cccc(C(F)(F)F)c2)S1 | 1 ± 0.019 | 1.01 ± 0.015 | 0.996 ± 0.02 | 1.02 ± 0.023 | 0.9948 ± 0.0089 | 0.9983 ± 0.0063 |
| Cc1cc(O)c2c(c1)C(=O)c1cc(O)cc(O)c1C2=O [Emodin] | 1.017 ± 0.0058 | 0.998 ± 0.011 | 1.02 ± 0.028 | 1.01 ± 0.023 | 1.002 ± 0.0068 | 1.01 |
| COC(=O)c1ccc2c(C(=Nc3ccc(N(C)C(=O)CN4CCN(C)CC4)cc3)c3ccccc3)c(O)[nH]c2c1 [BIBF1120 (Vargatef)] | 0.961 ± 0.019 | 1.01 ± 0.041 | 0.9907 ± 0.0059 | 1.03 ± 0.021 | 0.987 ± 0.011 | 0.9937 ± 0.0055 |
| CN1CCN(C2CCN(C(=O)Nc3cc(Oc4ccc(NC(=O)C5(C(=O)Nc6ccc(F)cc6)CC5)c(F)c4)ccn3)CC2)CC1 [Golvatinib (E7050)] | 1.07 | 1.12 ± 0.026 | 1.07 ± 0.029 | 1.07 ± 0.026 | 1.03 | 1.033 ± 0.0058 |
| Nc1ccc2c3c(cccc13)C(=O)NC2=O [4-Amino-1,8-naphthalimide] | 0.99 ± 0.0095 | 0.9813 ± 0.0097 | 0.9903 ± 0.0021 | 0.983 ± 0.024 | 0.996 ± 0.013 | 1.004 ± 0.01 |
| Cc1cc2c(F)c(Oc3ncnn4cc(OC[C@@H](C)O)c(C)c34)ccc2[nH]1 | 1.02 ± 0.015 | 1.03 ± 0.026 | 1.01 | 1.02 ± 0.015 | 1.017 ± 0.0058 | 1.05 ± 0.011 |
| O=C1C(SCCO)=C(SCCO)C(=O)c2ccccc21 | 1.02 ± 0.01 | 1.033 ± 0.0058 | 1.01 | 1.02 ± 0.01 | 1.007 ± 0.0058 | 1.01 ± 0.025 |
| CCCn1c(=O)c2[nH]c(-c3ccc(OCC(=O)Nc4ccc(C#N)cc4)cc3)nc2n(CCC)c1=O | 0.995 ± 0.014 | 0.968 ± 0.049 | 0.993 ± 0.0061 | 1.04 ± 0.091 | 0.9957 ± 0.004 | 0.996 ± 0.013 |
| Nc1c2c(nc3ccccc13)CCCC2O (stereo unspecified) [Hydroxytacrine maleate salt] | 0.988 ± 0.016 | 0.977 ± 0.0076 | 0.998 ± 0.014 | 0.988 ± 0.018 | 0.9767 ± 0.0031 | 0.977 ± 0.0056 |
| Cc1cc(N)c2ccccc2[n+]1CCCCCCCCCC[n+]1c(C)cc(N)c2ccccc21 [Dequalinium chloride hydrate] | 0.888 ± 0.026 | 0.0383 ± 0.0062 | 0.963 ± 0.016 | 0.0385 ± 0.0016 | 0.991 ± 0.013 | 0.00579 ± 0.0022 |
| C[C@@H]1C(=O)NC2=Nc3cccc(Cl)c3CN21 [Quazinone] | 1.002 ± 0.0072 | 1.01 ± 0.012 | 1.01 ± 0.015 | 1.01 ± 0.015 | 0.998 ± 0.0035 | 0.998 ± 0.013 |
| Oc1cc2c(cc1O)C(c1ccccc1)CNCC2 (racemic) | 0.987 ± 0.014 | 0.982 ± 0.013 | 0.982 ± 0.023 | 0.972 ± 0.011 | 0.992 ± 0.0044 | 0.9913 ± 0.0021 |
| Cn1ccc2cc3c(cc21)CCN3C(=O)Nc1cccnc1 | 1.02 ± 0.011 | 1.01 ± 0.018 | 1.05 ± 0.021 | 1.02 ± 0.017 | 1.03 ± 0.011 | 1.01 ± 0.01 |
| O=C(O)CP(=O)(O)O [Phosphonoacetic acid] | 0.985 ± 0.0099 | 1.01 ± 0.011 | 0.999 ± 0.02 | 0.9877 ± 0.006 | 0.9957 ± 0.0067 | 0.987 ± 0.013 |
